Test results taken from US20190062448A1, “ANTI-CD39 ANTIBODIES, COMPOSITIONS COMPRISING ANTI-CD39 ANTIBODIES AND METHODS OF USING ANTI-CD39 ANTIBODIES” (Tizona Therapeutics, priority 2017, published 2019).

Legend:
[1] = biological target: T1, CD39 on MEL-28 cells (Homo sapiens, UniProt P49961); assay: Short term ATPase assay on MEL-28 cells (Malachite Green phosphate readout); format: cell-based; conditions: Example 14; 100 nM down to 0.32 pM; 50 μM ATP
T1 construct: endogenous in cells; host or cells: MEL-28
T1 sequence (P49961 1-510): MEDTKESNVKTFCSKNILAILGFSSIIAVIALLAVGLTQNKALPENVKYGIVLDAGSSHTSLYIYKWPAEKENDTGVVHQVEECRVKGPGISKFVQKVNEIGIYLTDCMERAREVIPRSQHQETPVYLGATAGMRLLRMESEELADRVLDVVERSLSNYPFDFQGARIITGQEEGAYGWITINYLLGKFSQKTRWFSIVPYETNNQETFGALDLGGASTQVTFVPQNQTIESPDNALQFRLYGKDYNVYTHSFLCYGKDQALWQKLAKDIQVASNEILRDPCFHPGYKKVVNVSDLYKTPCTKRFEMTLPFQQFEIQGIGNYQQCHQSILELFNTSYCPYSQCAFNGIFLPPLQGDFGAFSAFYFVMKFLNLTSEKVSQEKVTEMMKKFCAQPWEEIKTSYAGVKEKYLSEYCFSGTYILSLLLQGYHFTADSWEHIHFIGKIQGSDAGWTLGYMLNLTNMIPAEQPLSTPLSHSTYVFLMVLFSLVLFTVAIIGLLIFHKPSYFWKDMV
Procedure: FIGS. 4 A-B provide evaluation of antibody driven inhibition of ATP hydrolysis of CD39 on MEL-28 cells in a short term ATP assay. […] Inhibition is determined by decreased phosphate release (Pi). Data is representative of at least 10 independent experiments. Anti-CD39 antibodies (each antibody clone number is indicated in the figure) were titrated from 15 to 0.001 μg/ml. […] Three independent experiments were performed.
FIGS. 13 A-B show evaluation of antibodies for inhibition of CD39 activity on MEL-28 (FIG. 13A) and human monocytes (FIG. 13B) as compared to the anti-CD39 antibodies generated based on Innate/Orega (BY-40v9) and Igenica (9-8B) and variants thereof. […] Phosphate release by CD39 processing of ATP was quantified using Malachite Green assay.
3.5×10^4 MEL-28 cells/well were washed with Tris buffer and incubated with serially diluted (100-0.00013 nM) antibody for 30 minutes at 37 degrees C. […] The supernatants were collected and analyzed in Malachite Green Assay (R&D) according to manufacturer's protocol. Phosphate released from CD39 processing of ATP was used as a readout of enzyme activity. […]
(§1) 3.5×10^4 MEL-28 cells/well were incubated with 100 nM down to 0.32 pM of monoclonal antibodies for 30 minutes. […] Supernate was evaluated for free phosphate (Pi) using the Malachite Green Phosphate Detection Kit (R&D Systems cat#DY996). […]

[2] = biological target: T2, CD39 on primary human monocytes (Homo sapiens, UniProt P49961); assay: Inhibition of ATPase activity on human monocytes (Malachite Green); format: cell-based; conditions: Example 14
T2 construct: Human monocytes were purified from leukopak using EasySep Human monocytes isolation kit; endogenous in cells; host or cells: primary human monocytes from leukopak
T2 sequence (P49961 1-510): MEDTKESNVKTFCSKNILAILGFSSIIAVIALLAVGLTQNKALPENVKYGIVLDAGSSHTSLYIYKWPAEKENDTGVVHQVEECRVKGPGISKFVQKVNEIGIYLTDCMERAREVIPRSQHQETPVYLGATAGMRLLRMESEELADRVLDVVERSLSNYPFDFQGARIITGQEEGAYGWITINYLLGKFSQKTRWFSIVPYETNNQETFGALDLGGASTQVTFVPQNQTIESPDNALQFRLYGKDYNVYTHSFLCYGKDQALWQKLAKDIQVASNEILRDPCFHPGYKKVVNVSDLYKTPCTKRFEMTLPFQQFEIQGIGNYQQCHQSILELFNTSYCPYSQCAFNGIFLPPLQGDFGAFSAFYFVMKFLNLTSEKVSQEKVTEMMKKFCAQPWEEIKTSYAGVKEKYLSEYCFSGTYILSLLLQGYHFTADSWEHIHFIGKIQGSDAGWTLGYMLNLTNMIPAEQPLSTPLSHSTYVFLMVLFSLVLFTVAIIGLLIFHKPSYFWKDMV
Procedure: FIG. 9 provides evaluation of inhibition of CD39 activity on primary human (a) and cyno (b) monocytes. Anti-CD39 antibodies (each number represents a unique antibody clone number as indicated in the figure) were titrated from 100 to 0.00013 nM and incubated with monocytes in presence of ATP. Phosphate release by CD39 processing of ATP was quantified using Malachite Green assay.
FIGS. 13 A-B show evaluation of antibodies for inhibition of CD39 activity on MEL-28 (FIG. 13A) and human monocytes (FIG. 13B) as compared to the anti-CD39 antibodies generated based on Innate/Orega (BY-40v9) and Igenica (9-8B) and variants thereof. Anti-CD39 antibodies were titrated as indicated and incubated in presence of ATP. Phosphate release by CD39 processing of ATP was quantified using Malachite Green assay.
Human monocytes were purified from leukopak using EasySep Human monocytes isolation kit ([…]). Cyno monocytes were isolated from whole cyno blood using NHP CD14 positive selection kit (Miltenyi). […] 50 μM ATP was added to the cells for 15 minutes at 37 C and supernatants were harvested and analyzed in Malachite Green Assay (R&D) for phosphate levels. […]
as §1

[3] = biological target: T3, CD39 expressed on MEL-28 cells (Homo sapiens, UniProt P49961); assay: Cellular CD39 ATPase inhibition (Malachite Green), Example 15; format: cell-based; conditions: 10-25 μg/ml antibody; 50 μM ATP; vs isotype control
T3 construct: endogenous in cells; host or cells: MEL-28
T3 sequence (P49961 1-510): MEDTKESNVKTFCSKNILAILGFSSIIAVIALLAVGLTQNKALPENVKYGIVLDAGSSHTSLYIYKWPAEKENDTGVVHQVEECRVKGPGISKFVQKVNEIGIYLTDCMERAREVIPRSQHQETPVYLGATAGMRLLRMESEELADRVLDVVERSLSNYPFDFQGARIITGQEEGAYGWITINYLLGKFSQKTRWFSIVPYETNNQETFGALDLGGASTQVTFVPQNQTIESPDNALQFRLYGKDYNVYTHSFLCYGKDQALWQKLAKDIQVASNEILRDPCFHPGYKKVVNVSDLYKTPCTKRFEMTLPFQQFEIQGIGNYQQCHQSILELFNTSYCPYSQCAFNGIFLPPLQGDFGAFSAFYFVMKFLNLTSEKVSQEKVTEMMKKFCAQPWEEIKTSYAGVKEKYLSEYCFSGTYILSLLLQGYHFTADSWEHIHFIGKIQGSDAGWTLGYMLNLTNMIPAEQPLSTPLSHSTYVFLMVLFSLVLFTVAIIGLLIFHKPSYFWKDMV
Procedure: Indicated cells were incubated in assay buffer with 10-25 μg/ml antibody, 100 μM POM-1 or 100 μM ARL for 30 min at 37° C. 5% CO2. ATP was added to a final concentration of 50 μM and the incubation continued for 15 min. Supernatant was evaluated for free phosphate (Pi) using the Malachite Green Phosphate Detection kit. Palivizumab is used as an isotype control and POM-1 and ARL are non-specific small molecule inhibitors of CD39.
(§2) Also, an 18 hour incubation was used with the antibody or isotype control. Finally, an additional 30 second baseline dip in buffer between antigen capture and dipping into a second competitor antibody for 300 seconds was used.

[4] = biological target: T4, hCD39-ECD (Homo sapiens, UniProt P49961); assay: Epitope binning / competition for hCD39-ECD binding by Bio-Layer Interferometry
T4 sequence (P49961 38-478 limits assumed): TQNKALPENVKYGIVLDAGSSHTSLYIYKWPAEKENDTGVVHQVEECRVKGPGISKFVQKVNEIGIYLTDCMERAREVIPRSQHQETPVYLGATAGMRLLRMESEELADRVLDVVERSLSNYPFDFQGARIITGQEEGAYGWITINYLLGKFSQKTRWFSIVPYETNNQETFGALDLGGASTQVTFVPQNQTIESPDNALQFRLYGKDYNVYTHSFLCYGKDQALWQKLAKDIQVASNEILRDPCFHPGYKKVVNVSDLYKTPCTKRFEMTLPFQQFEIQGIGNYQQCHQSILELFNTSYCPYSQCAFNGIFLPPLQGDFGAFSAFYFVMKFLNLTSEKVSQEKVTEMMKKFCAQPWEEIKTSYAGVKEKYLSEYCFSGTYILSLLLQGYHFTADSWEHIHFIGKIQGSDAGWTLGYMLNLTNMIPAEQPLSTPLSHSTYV
Excerpt: A1 antibody was immobilized onto an Anti-Mouse IgG Fc Capture (AMC) biosensor (ForteBio). Association of hCD39-ECD was then monitored for 180 seconds via Bio-Layer Interferometry (BLI) using the Octet system (ForteBio), at which point the biosensor was dipped into competitor antibody and monitored for another 180 seconds.
The methods are the same as set forth above except that instead of A1, the representative antibody was immobilized using anti-human IgG Fc Capture (AHC) biosensor.
as §2

[5] = biological target: T4, hCD39-ECD; assay: rhCD39-ECD ATPase inhibition (Malachite Green free phosphate); format: biochemical; parameters: purchased R&D Systems; conditions: 50 μg/ml antibody; 10 μM ATP; vs isotype or buffer controls
Procedure: 0.04-3.3 nM rhCD39-ECD (R&D Systems) was incubated with buffer, 50 μg/ml antibody or 100 μM POM-1 (Alpha Aesar) for 1 hr at 37° C. in assay buffer (25 mM Tris pH 7.5, 5 mM CaCl2) at which point ATP (Sigma) was spiked in to a final concentration of 10 μM, and the reaction further incubated for 30 min 37° C. Production of free phosphate (Pi) was subsequently measured using Malachite Green Phosphate Detection kit (R&D Systems).
as §2

[6] = biological target: T5, human CD39 on CHO CD39 cells (Homo sapiens, UniProt P49961); assay: Binding to CHO cells expressing human CD39 (flow cytometry)
T5 construct: expressed in transfected cells; host or cells: Chinese Hamster Ovary K1 (CHO)
T5 sequence (P49961 1-510): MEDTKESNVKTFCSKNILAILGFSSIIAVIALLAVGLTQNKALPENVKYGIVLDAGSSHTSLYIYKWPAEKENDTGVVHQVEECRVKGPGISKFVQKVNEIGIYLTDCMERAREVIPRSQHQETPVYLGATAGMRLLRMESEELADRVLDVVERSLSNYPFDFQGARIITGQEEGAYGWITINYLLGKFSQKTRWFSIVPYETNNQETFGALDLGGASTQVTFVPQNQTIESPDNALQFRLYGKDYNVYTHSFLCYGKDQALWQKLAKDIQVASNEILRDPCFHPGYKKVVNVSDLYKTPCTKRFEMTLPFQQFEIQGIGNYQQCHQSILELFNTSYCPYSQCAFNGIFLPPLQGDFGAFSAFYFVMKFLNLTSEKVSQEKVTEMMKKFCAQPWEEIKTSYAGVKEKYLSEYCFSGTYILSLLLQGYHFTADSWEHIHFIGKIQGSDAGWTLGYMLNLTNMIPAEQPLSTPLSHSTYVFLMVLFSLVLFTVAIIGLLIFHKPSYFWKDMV
Procedure: Binding of anti-CD39 IgGs to Chinese Hamster Ovary K1 (CHO) CD39 cells. 100 nanomolar IgGs (each antibody is indicated as a unique clone number in the FIG.) were incubated at 25° C. for 30 minutes on ice in phosphate buffered saline (PBS) with parental CHO cells or CHO cells engineered to express either human or cynomolgus macaque (Macaca fascicularis) CD39 (CHO CD39 cells). Cells were then washed with ice cold PBS and incubated with a fluorescently labeled goat-anti-human IgG for 20 minutes on ice. Cells were washed and resuspended in ice cold PBS prior to analysis by flow cytrometry. Fold over background binding levels represent the ratio of median fluorescence intensity (MFI) values for anti-CD39 antibodies binding to CHO CD39 to MFI values for anti-CD39 antibodies binding to the parental CHO cells.

B1: 28347: anti-human CD39 antibody inhibiting soluble ECD and cellular CD39 (antibody, V domains shown)
VH: QVQLVQSGAEVKKPGSSVKVSCKASGGTFSSLAISWVRQAPGQGLEWMGGIIPIFGTANYAQKFQGRVTITADESTNTAYMELSSLRSEDTAVYYCARGGAKYASTYGMDVWGQGTTVTVSS
VL: DIVMTQSPDSLAVSLGERATINCKSSQSVLFSSNNKNYLAWYQQKPGQPPKLLIYWASTRESGVPDRFSGSGSGTDFTLTISSLQAEDVAVYYCQQYYLYPLTFGGGTKVEIK
modifications: Synthetic VH, 28347; Synthetic VL, 28347
[1]
  enzymatic inhibition (free phosphate release) on MEL-28 cell, short term assay: able to inhibit ATPase activity at low nM concentrations
[2]
  enzymatic inhibition (free phosphate release) on primary human monocyte, short term assay: able to inhibit ATPase activity at low nM concentrations
[3]
  inhibition of ATPase activity of CD39 expressed on MEL-28 cells: inhibit the hydrolysis of CD39 expressed on MEL-28 cells
[4]
  competition / binning with other anti-CD39 antibody bin groups for ECD binding: do not compete
[4]; A1 immobilized, ECD captured, then competitor antibody
  competition with antibody A1 for binding to hCD39 ECD: do not compete
[5]
  inhibition of ATPase activity of soluble hCD39 ECD (μM Pi): able to inhibit the hydrolysis of ATP by hCD39 ECD

B2: 27575: anti-CD39 antibody without significant binding to CHO CD39 cells (antibody)
heavy: QVQLVQSGAEVKEPGSSVKVSCKASGGTFSSYATSWVRQAPGQGLEWMGGIIPISGTANYAQEFQGRVTITADESTSTAYMELSSLRSEDTAVYYCARDGGGYRHHYFDLWGRGTLVTVSSASTKGPSVFPLAPCSRSTSESTAALGCLVKDYFPEPVTVSWNSGALTSGVHTFPAVLQSSGLYSLSSVVTVPSSSLGTKTYTCNVDHKPSNTKVDKRV[human IgG4 Fc with S228P (EU numbers) left out here]
light: EIVLTQSPATLSLSPGERATLSCRASQSVSRYLAWYQQKPGQAPRLLIYDASNRATGIPARFSGSGSGTDFTLTISSLEPEDFAVYYCQQHVNFPLTFGGGTKVEIKRTVAAPSVFIFPPSDEQLKSGTASVVCLLNNFYPREAKVQWKVDNALQSGNSQESVTEQDSKDSTYSLSSTLTLSKADYEKHKVYACEVTHQGLSSPVTKSFNRGEC
modifications: Synthetic HC, 27575; Synthetic LC, 27575
[6]
  binding to cellular human CD39 (in words): did not show significant binding
